Results: PubChem BioAssay AID493208 (National Center for Advancing Translational Sciences (NCATS), 2011)
Hit rate of the full screen: of about 44,000 compounds, about 340 (0.77%) were called active. Inconclusive results (about 5%) are left out. Calls follow the shape of the dose curve; as a rule, active = well fitted inhibition curve with a large enough effect; inconclusive = small, poorly fitted or top-dose-only effect; inactive = flat fitted curve, though single readings scatter. Some of the results follow.

assay: Acumen qHTS Assay for Inhibitors of the mTORC1 Signaling Pathway in MEF (Tsc2-/-, p53-/-) Cells: Sytravon; settings: phospho-rpS6 immunofluorescence/PI, 24 h; series mostly up to 38.3 µM; activity change, negative = inhibition: at the top concentration;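 also: plate controls were DMSO for no effect and rapamycin for full effect; nearly all actives have a fitted effect of over 50% in size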
Outline: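 Compounds act on Tsc2-/-, p53-/- fibroblasts carrying an empty vector for 24 h before fixation and dual staining for phospho-S6 and DNA (propidium iodide). Values are percentages of cells above a rapamycin-defined pS6/PI threshold.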

Activity change, negative = inhibition, inactive:
CC1CCCCN1c1csc2ccc(F)cc2c1=O (configuration not stated) -4.38%, CSc1nc2sc3c(c2c(=O)n1-c1ccc(C)c(Cl)c1)CCN(C(C)=O)C3 -2.21%, CCOc1ccc(CCNC(=O)c2ccc3c(c2)c(C)c(C)n3C)cc1 -0.896%, COC(=O)c1ccc(NC(=O)CSc2nc(=O)n(Cc3ccco3)c3c2CCC3)cc1 -8.26%, COc1cc(C(=O)N(Cc2ccc(C(C)C)cc2)C2CCS(=O)(=O)C2)cc(OC)c1OC (configuration not stated) -0.173%, CCC(=O)N1CCc2cc(Br)cc(S(=O)(=O)NCCc3ccc(OC)c(OC)c3)c21 -3.62%, CC(=O)C1=C(OC(=O)C(C)C)c2ccccc2S(=O)(=O)N1Cc1ccccc1 -8.99%, O=C(NCCCc1nc2ccccc2n1Cc1ccccc1Cl)C1CCCCC1 -10.6%, Cc1[nH]n2c(=O)cc(-c3ccccc3Cl)nc2c1-c1ccccc1 1.61%, CCn1c(SCc2ccccc2)nnc1-c1nonc1NC(C)=O -12.2%, Cc1cc(NC(=O)CN2C(=O)C(C)(C)c3ccccc32)ccc1Br -9.31%, CCN(C(=O)CSc1nc2ccccc2n1CC(=O)Nc1cccc(C#N)c1)c1ccccc1 0%, Cc1ccc(CNC(=O)CC2Oc3ccccc3NC2=O)cc1 (configuration not stated) 2.49%, CCOC(=O)C1CCCN(C(=O)Cn2ncc3c([nH]c4ccccc43)c2=O)C1 (configuration not stated) 3.79%, COc1ccc(C(CC(=O)Nc2ccc(F)c(Cl)c2)N2Cc3ccccc3C2=O)cc1OC (configuration not stated) -8.01%, Cc1ccc(N2CC3=C(C2=O)C(c2ccc(Br)cc2)NC(=O)N3C)cc1 (configuration not stated) 9.76%, CC(C)c1ccc(NS(=O)(=O)c2ccc3[nH]cc(C(=O)NC4CCCC4)c(=O)c3c2)cc1 1.3%, Cc1ccccc1CNC(=O)c1ccc(NC(=O)c2nsc3ccccc23)cc1 10.1%, O=C(Cn1c(=O)oc2cc(S(=O)(=O)N3CCCCCC3)ccc21)Nc1cccc(C(F)(F)F)c1 -1.11%, O=C1Cc2cc(S(=O)(=O)N3CCN(c4ccccc4)CC3)ccc2N1 -8.08%, Cc1ccc(-c2nc(C(=O)NCc3ccc(Cl)cc3)c3n2CCCCC3)cc1 6.18%, Cc1ccccc1Nc1sc(C(=O)c2ccc3c(c2)OCO3)c(N)c1S(=O)(=O)c1ccccc1 0.382%, CCOc1ccccc1-n1ccnc(NCc2ccc(F)cc2)c1=O 6.83%, Cc1cccc(NC(=O)Nc2nnc(N(C)C3CCCCC3)s2)c1C -0.253%, Cc1nn(CC(=O)NCc2ccco2)c(=O)c2cc3ccccc3n12 -0.815%, O=C(CCC(=O)N1Cc2ccccc2Oc2ncccc21)Nc1ccc(Cl)cc1 1.88%, COc1ccc(-c2nn(CC(=O)NC3CCCC3)c3c2cnc2ccc(F)cc23)cc1 -3.87%, CC1CCN(S(=O)(=O)c2ccc3c(c2)N(CC(=O)NCc2ccccc2)C(=O)CO3)CC1 -2.36%, COC(=O)c1ccc(Cl)cc1NC(=O)N1CC=C(c2c[nH]c3ccccc23)CC1 -8.8%, COc1ccc(N2CCN(C(=O)c3cc4c(-c5ccccc5F)nn(C)c4s3)CC2)cc1 -7.06%, O=C(Cn1ncc2c(=O)oc3ccccc3c21)Nc1cc(F)ccc1F -0.816%, O=C(CSc1nc2nccnc2c(=O)n1CCc1c[nH]c2ccccc12)Nc1ccccc1F -14.8%, Oc1ccccc1Nc1nc(-c2ccccc2)c2cc(Cl)ccc2n1 -7.7%, CCN(CC)c1nc(-c2ccc(C(C)(C)C)cc2)nc2ccccc12 15.3%, Cc1cccc(OCCCC(=O)Nc2sc3c(c2C(N)=O)CCC(C)C3)c1 (configuration not stated) 11.2%, COc1ccc2c(CNCC(C)c3ccccc3)c(C(=O)O)n(Cc3ccc(F)cc3Cl)c2c1 (configuration not stated) -4.51%, COc1ccc(/C=C(\C#N)c2nc(-c3cc(Cl)ccc3OC)cs2)cc1 3.73%, O=C1CS(=O)(=O)C2(C(=O)N(Cc3cccc(F)c3)c3ccccc32)N1c1ccccc1 (configuration not stated) 1.59%, CCOc1ccc(CCNC(=O)CCc2c(C)nc3c(c(C)nn3-c3ccccc3)c2C)cc1OCC 3.38%, COc1cc(OC)c(NC(=O)c2c(C)oc3ncn(C)c(=O)c23)cc1Cl -5.88%, CCOc1ccc(NC(=O)c2ccc(NC(=O)CCS(=O)(=O)c3cccs3)cc2)cc1 -5.2%, Cc1ccc(C2CC(=O)N(Cc3ccccc3F)c3c2c(C)nn3-c2nc(C)cc(C)n2)cc1 (configuration not stated) -0.573%, CCn1cc(C(=O)N2CCN(c3cccc(Cl)c3)CC2)c(=O)c2cc(S(=O)(=O)N3CCOCC3)ccc21 -0.828%, Cc1ccc(Cc2nc3ccccc3nc2SCC(=O)N2CCc3ccccc32)cc1 12.2%, CN(C)CCNC(=O)C1CCN(c2nc3ccccc3[nH]2)CC1 8.16%, COc1ccc(NC(=O)Nc2nnc(N3CCCCCC3)s2)cc1 0.684%, Cc1c(NC(=O)c2cc([N+](=O)[O-])ccc2N2CCOCC2)cccc1-c1nc2ccccc2o1 0.458%, Cc1ccc(NC(=O)c2nc(S(C)(=O)=O)ncc2N(Cc2ccccc2)Cc2ccco2)c(C)c1 -1.44%, COc1ccc(NC(=O)c2nnn(Cc3ccccc3C)c2N)c(OC)c1 -10.4%, Cc1ccc(C(=O)Nc2c(-c3ccccc3)nc3ccccn23)cc1C 7.93%, Cc1ccc(CNC(=O)Cn2c3ncccc3c(=O)n2-c2ccccc2)cc1 2.27%, CC(C)CN(CCCNC(=O)c1cc(=O)[nH]c2ccc(S(=O)(=O)N3CCCCCC3)cc12)CC(C)C 5.54%, CC(=O)N1c2nc(C(C)C)nn2C2(CCCCC2)[C@@H]2CCCC[C@@H]21 0%, CCOc1ccc2oc(=O)cc(CN3CCN(c4cc(C)ccc4C)CC3)c2c1 1.25%, CC(=O)Nc1cccc(NC(=O)CN2C(=O)CCSc3ccccc32)c1 -0.552%, Cc1nc2nc(NC(=O)c3ccccc3F)[nH]n2c(=O)c1Cl 0.458%, Cc1cccc(N2CCN(C(=O)c3cccn4c(=O)c5cc(Cl)ccc5nc34)CC2C)c1 (configuration not stated) -12.9%, O=C(CSc1nnc(-c2cccc(Cl)c2)o1)N1CCc2ccccc21 7.63%, COc1cc(OC)c(NC(=O)C2=C(C)C(=O)OC23CCCCCC3)cc1Cl -14.1%, COc1ccc(C2C=C(c3cccc(OC)c3)Nc3c(C(=O)Nc4ccccc4)cnn32)cc1 (configuration not stated) 9.21%, CCn1c2c(c(=O)n3ncc(C(=O)Nc4cc(Cl)ccc4C)c13)CN(Cc1ccc(OC)cc1)CC2 3.22%, Cc1ccn2c(Nc3ccc(C(C)C)cc3)c(-c3cccs3)nc2c1 1.43%
